# Test results reported in PubChem BioAssay AID540317 (National Center for Advancing Translational Sciences (NCATS), 2011).
# Screen size: about 390,000 compounds; about 2,200 (0.56%) were called active. Inconclusive means that the source gave no clear call. Such entries were picked first, then a sample of the others. Calls come from the whole dose curve; as a rule, active = well fitted inhibition curve with a large enough effect; inconclusive = small, poorly fitted or top-dose-only effect; inactive = no such curve, though single readings can be large or run the other way. A potency beside an inconclusive call is a rough fit, not a confirmed value.
# Target: Chromobox protein homolog 1 (Homo sapiens) (UniProt P83916)
# Experiment: HTS for Inhibitors of HP1-beta Chromodomain Interactions with Methylated Histone Tails; note: nearly all actives have a fitted effect of over 70% in size
# Conditions: AlphaScreen HP1-beta / biotin-H3K9me3 peptide binding; series mostly up to 114 µM
# Description: As our understanding of epigenetics expands, it is becoming clear that players in this field are potential targets for drug development. This area of epigenetic therapy has established applications for the treatment of cancer and neurological diseases. We have been involved in this field for a number of years and have performed high-throughput screens to identify the first small molecule inhibitors of protein methyltransferases. These methyltransferases target multiple substrates, and thus regulate many arms of an epigenetic pathway. The methylation of different substrates often generates docking sites for effector proteins that harbor binding domains (chromo, tudor, PHD, MBT and ANK repeats). It has been proposed that the binding sites generated for different proteins by these post-translational modifcations mediate downstream effects on chromatin. Consistent with this theory, di- and tri-methylation of histone H3K9 facilitates the binding of heterochromatin protein HP1. The HP1 protein harbors a chromodomain that is responsible for the methyl-dependent interaction between HP1 and lysine 9 of histone H3. HP1 was first described in flies as a heterochromatin associated protein that can regulate gene silencing. It harbors a chromodomain that binds H3K9me3. In addition, it harbors a chromoshadow domain that interacts with a large number of proteins that are involved in heterochromatin formation and gene repression. There are three highly related HP1 isoforms. All three variants are associated with pericentric heterochromatin and it is not clear whether they have specific or redundant functions. MPP8 is also involved in the repression of gene in euchromatic regions (unpublished data) and like HP1 its chromodomain binds H3K9me3. MPP8 harbors an ankyrin repeat region that is likely involved in binding and recruiting interacting proteins with transcriptional repressive function, much like the chromoshadow domain of HP1 does. We hypothesize that by inhibiting specific protein-protein interactions we will be able to develop compounds that block a single arm of an epigenetic pathway. The specificity attained by blocking a single protein-protein interaction will be far greater than that attained by blocking the enzyme that regulates one of many interactions. Low-affinity protein-protein interactions (Kd in the single- to double-digit micromolar range) such as those discussed here have been very difficult to assay by traditional techniques such as fluorescence polarization or fluorescence resonance energy transfer. We have developed a sensitive chemiluminescence-based assay (Quinn, et al. 2009), which serves as the starting point for this project. The following is a validation assay to identify lead compounds that can block methyl-dependent protein-protein interactions (specifically HP1-beta), which can be used as probes to analyze these methyl-driven interactions and perhaps even developed into targeted epigenetic therapies. NIH Chemical Genomics Center [NCGC] NIH Molecular Libraries Probe Centers Network [MLPCN] MLPCN Grant: DA031087 Assay Submitter (PI): Mark Bedford, University of Texas, Medical Anderson Cancer Center, TX
# To each well, 2 uL of HP1-beta protein (final 50 nM) and 1 uL biotinylated histone peptide trimethylated at Lys9 [b-H3(1-18)K9me3] (final 50 nM) was added in 1x PBS buffer, pH 7.4, containing 0.01% Tween-20 using a nanoliter dispenser. Formation of a protein-peptide complex proceeded at room temperature for 30 min. A Kalypsys pin-tool was employed to transfer 23 nL of library compound solution in DMSO to each well. Aurintricarboxylic acid (ATA) was used as an intraplate control with a 12-point titration in duplicate. Following a 30 min incubation of the protein-peptide complex with compounds at room temperature, a mixture of 40 ug/mL each streptavidin-coated donor and nickel chelate acceptor AlphaScreen beads (final 10 ug/mL) was added in a 1 uL dispense for a final volume of 4 uL. […]
# Potency is the fitted concentration of half-maximal effect; tags give direction and shape of the fitted curve.
# Sequence of UniProt P83916 (P83916 whole entry, looked up): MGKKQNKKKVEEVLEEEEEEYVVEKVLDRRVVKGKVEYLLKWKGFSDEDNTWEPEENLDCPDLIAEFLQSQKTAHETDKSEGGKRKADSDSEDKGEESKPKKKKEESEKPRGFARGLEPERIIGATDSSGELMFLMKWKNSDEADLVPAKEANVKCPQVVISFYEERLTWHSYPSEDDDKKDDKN
row,Compound,Potency
1,CCn1c(SCC(=O)Nc2cc(C(C)(C)C)nn2-c2ccccc2)nnc1-c1cccs1,inactive
2,CC(C)NC(=S)NC(c1ccccc1)(c1ccccc1)c1ccccc1,"inconclusive: 20 µM [inhibitor, full curve]"
3,CN1CCN(c2oc(-c3ccccc3)nc2S(=O)(=O)c2ccc(Br)cc2)CC1,"inconclusive: 56.2 µM [inhibitor, single point]"
4,CCCN1CCCc2cc(CN(CCCN3CCOCC3)C(=O)Nc3ccc(Cl)c(Cl)c3)ccc21,"inconclusive: 12.6 µM [inhibitor, full curve]"
5,Cc1cccc2[nH]c3c(N4CC=C(c5ccc(F)cc5)CC4)ncnc3c12,"inconclusive: 79.4 µM [inhibitor, single point]"
6,CCc1cccc(C)c1NC(=O)CNCc1ccccc1,"inconclusive: 56.2 µM [inhibitor, single point]"
7,CCOC(=O)c1c(NC(=O)COc2ccccc2)sc(C(C)=O)c1C,"inconclusive: 44.7 µM [inhibitor, partial curve, poor fit]"
8,Cc1ccc(NC(=S)c2ccc3ccccc3n2)c(C)c1,active: 11.2 µM
9,NS(=O)(=O)c1ccc(CCNC(=O)C2CCCCN2S(=O)(=O)c2ccccc2)cc1 (stereo not drawn),"inconclusive: 3.98 µM [inhibitor, partial curve, poor fit]"
10,CCCCCCNc1c([N+](=O)[O-])cc(C)cc1[N+](=O)[O-],active: 8.91 µM
11,Cc1ccc2c(c1)c1c(n2CC(O)Cn2c(C)nc3ccccc32)C(=O)CCC1 (stereo not drawn),inactive
12,O=C(CSc1nnc(NC(=O)c2ccccc2C(=O)O)s1)Nc1ccccc1Cl,inactive
13,CCOc1ccc(NC(=O)c2c(NCc3cc(OC)c(OC)cc3OC)sc3c2CCCC3)cc1,"inconclusive: 20 µM [inhibitor, partial curve, poor fit]"
14,CN(CCCNC(=O)c1cccc(N2CCCC2=O)c1)c1ccccc1,inactive
15,COc1ccc(N2CCN(C(=O)c3cccc(Br)c3)CC2)c([N+](=O)[O-])c1,"inconclusive: 11.2 µM [inhibitor, partial curve, poor fit]"
16,O=[N+]([O-])c1cc(/C=N/Nc2nc3ccccc3[nH]2)c(O)cc1O,"inconclusive: 50.1 µM [inhibitor, partial curve]"
17,CC(C)CCNC(=O)C(c1ccc(O)cc1)N(C(=O)C1COc2ccccc2O1)c1cccc(O)c1 (stereo not drawn),"inconclusive: 35.5 µM [inhibitor, full curve]"
18,CCN(CC)Cc1cc(O)c(CN(CC)CC)cc1O,active: 1.41 µM
19,C/C(=N\OCC(=O)OCC(=O)NCc1ccccc1)c1ccc2c(c1)OCO2,"inconclusive: 56.2 µM [inhibitor, partial curve, poor fit]"
20,O=C(O)CC(C(=O)O)N1C(=O)/C(=C/c2ccc(-c3nc4ccccc4s3)o2)SC1=S (stereo not drawn),active: 28.2 µM
21,COc1ccc(N2CCN(C(=O)c3ccc(NS(=O)(=O)c4ccc(F)cc4)cc3)CC2)cc1,"inconclusive: 35.5 µM [inhibitor, single point]"
22,Cc1cc(C)c2cc(C#N)c(N3CCCN(C(=S)NCCCN(C)C)CC3)nc2c1,inactive

row,Compound,Potency
1,NC(=O)CC(NC(=O)Cc1ccc(Br)cc1)c1ccc(NC2CC3CCC2C3)c([N+](=O)[O-])c1 (stereo not drawn),"inconclusive: 28.2 µM [inhibitor, partial curve, poor fit]"
2,COc1ccc(NC(=O)CN2C(=O)/C(=C3\SC(=S)N(C4CCS(=O)(=O)C4)C3=O)c3ccccc32)cc1 (stereo not drawn),"inconclusive: 56.2 µM [inhibitor, partial curve, poor fit]"
3,Cn1ncc([N+](=O)[O-])c1C(=O)Nc1ccc(-c2ccccc2)cc1,inactive
4,COC(=O)c1cc2c(-c3ccccc3)c(C)c3ccccn3c-2c1C(=O)OC,"inconclusive: 14.1 µM [inhibitor, full curve, poor fit]"
5,O=C(CN1C(=O)NC2(CCCCC2)C1=O)N1CCN(S(=O)(=O)c2ccc(F)c(F)c2F)CC1,"inconclusive: 25.1 µM [inhibitor, single point]"
6,COc1cc(OC)c(OC)cc1/C=N/n1c(COc2ccccc2)n[nH]c1=S,"inconclusive: 50.1 µM [inhibitor, single point]"
7,Cc1ccc(-c2ccc(C3C(C#N)=C(N)Oc4n[nH]c(C)c43)o2)cc1 (stereo not drawn),"inconclusive: 20 µM [inhibitor, partial curve, poor fit]"
8,FC(F)(F)c1cccc(N2CCC(N=CN3CCCCCC3)=N2)c1,"inconclusive: 56.2 µM [inhibitor, partial curve, poor fit]"
9,COc1ccc2[nH]cc(CCNC(=O)Nc3cc(C)cc(C)c3)c2c1,inactive
10,Clc1cccc(CN2CCC(Cc3ccccc3)CC2)c1,"inconclusive: 70.8 µM [inhibitor, single point]"
11,COc1ccc(CNC(=O)C(C#N)c2nc3ccccc3nc2N2CCN(C)CC2)cc1 (stereo not drawn),"inconclusive: 44.7 µM [inhibitor, partial curve, poor fit]"
12,Cc1ccc(OCCC(=O)Nc2ccc(S(=O)(=O)Nc3nccs3)cc2)cc1,"inconclusive: 79.4 µM [inhibitor, single point]"
13,Cc1ccccc1NC(=O)C1C2CCCCC21 (stereo not drawn),inactive
14,O=C1C(Cl)=C(Nc2ccccc2O)C(=O)N1CCc1ccccc1,"inconclusive: 44.7 µM [inhibitor, single point]"
15,O=S(=O)(Cc1ccccc1)Nc1ccccc1Br,inactive
16,NNC(=O)CNC(c1ccccc1)c1cc(Br)ccc1NC(=O)c1ccccc1Br (stereo not drawn),"inconclusive: 39.8 µM [inhibitor, single point]"
17,Cc1ccc(NC(=O)C2C3C=CC(O3)C2C(=O)O)cc1C (stereo not drawn),inactive
18,CCC(=O)Nc1cccc(NC(=O)c2cc3ccccc3o2)c1,inactive
19,Cc1ccc(OCCCN2C(=O)C(=O)c3cc(C)ccc32)cc1,"inconclusive: 10 µM [inhibitor, partial curve]"
20,O=C(Nc1ccc(Cl)c(-c2nc3ccccc3o2)c1)c1cccc2c(Cl)cccc12,inactive
21,NC(=O)C1CCN(C2=C(Cl)C(=O)c3ccccc3C2=O)CC1,"inconclusive: 17.8 µM [inhibitor, partial curve, poor fit]"
